Reference: patent US8623347B2 (priority 2008, dated 2014)

Conditions: CC50 (Alamar Blue) / EC50 (LCMV ELISA)
Procedure: Compound 1 passed this medicinal chemistry filter and was evaluated for potency. Compound potency was determined by evaluating inhibitory activity across a broad range of concentrations, again using the cell-based ELISA. Nonlinear regression was used to generate best-fit inhibition curves and to calculate a 50% effective concentration (EC50) equivalent to 80 nM. The selectivity or specificity of a given compound is typically expressed as a ratio of its cytotoxicity to its biological effect. A cell proliferation assay is used to calculate a 50% cytotoxicity concentration (CC50); the ratio of this value to the EC50 is referred to as the therapeutic index (T.I.=CC50/EC50). To determine cytotoxicity, a fluorimetric assay that quantifies reduction of resazurin (Alamar Blue) was employed (8).

c1ccc2[nH]c(-c3nc4ccccc4[nH]3)nc2c1 [Compound 1, 1H, 1′H-[2,2′]Bibenzoimidazolyl]
therapeutic index (T.I.=CC50/EC50): > 310
